Test results reported in PubChem BioAssay AID743255 (National Center for Advancing Translational Sciences (NCATS), 2014).
The campaign covered roughly 390,000 compounds. About 910 (0.23%) were called active. Not shown: some 5% with an inconclusive outcome. The call rests on the fitted dose curve; in most records, active means well fitted inhibition curve with a large enough effect; inconclusive means small, poorly fitted or top-dose-only effect; inactive means no such curve, though single readings can be large or run the other way. The list shows a part of the results, in another mix than the full data.

What follows are molecules tested against Ubiquitin carboxyl-terminal hydrolase 1 (Homo sapiens) (UniProt O94782) (assay: Inhibitors of USP1/UAF1: Primary Screen). Conditions: recombinant USP1/UAF1, Ub-Rhodamine cleavage fluorescence; activity change, negative = inhibition: at 57.1 µM (top of the series).
Outline: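 In this screen, compounds sit with the deubiquitinase complex (1nM) for 15 min at room temperature before Ub-Rho is added at 150nM final. Fluorescence rise is then followed for 6 reads every 60 seconds.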
Further: nearly all actives have a fitted effect of over 60% in size.
On the % scale 0 is the no-effect control and ±100 the full control effect; potency means the concentration at half of the fitted maximal effect.

Chain of UniProt O94782 (O94782 whole entry, looked up): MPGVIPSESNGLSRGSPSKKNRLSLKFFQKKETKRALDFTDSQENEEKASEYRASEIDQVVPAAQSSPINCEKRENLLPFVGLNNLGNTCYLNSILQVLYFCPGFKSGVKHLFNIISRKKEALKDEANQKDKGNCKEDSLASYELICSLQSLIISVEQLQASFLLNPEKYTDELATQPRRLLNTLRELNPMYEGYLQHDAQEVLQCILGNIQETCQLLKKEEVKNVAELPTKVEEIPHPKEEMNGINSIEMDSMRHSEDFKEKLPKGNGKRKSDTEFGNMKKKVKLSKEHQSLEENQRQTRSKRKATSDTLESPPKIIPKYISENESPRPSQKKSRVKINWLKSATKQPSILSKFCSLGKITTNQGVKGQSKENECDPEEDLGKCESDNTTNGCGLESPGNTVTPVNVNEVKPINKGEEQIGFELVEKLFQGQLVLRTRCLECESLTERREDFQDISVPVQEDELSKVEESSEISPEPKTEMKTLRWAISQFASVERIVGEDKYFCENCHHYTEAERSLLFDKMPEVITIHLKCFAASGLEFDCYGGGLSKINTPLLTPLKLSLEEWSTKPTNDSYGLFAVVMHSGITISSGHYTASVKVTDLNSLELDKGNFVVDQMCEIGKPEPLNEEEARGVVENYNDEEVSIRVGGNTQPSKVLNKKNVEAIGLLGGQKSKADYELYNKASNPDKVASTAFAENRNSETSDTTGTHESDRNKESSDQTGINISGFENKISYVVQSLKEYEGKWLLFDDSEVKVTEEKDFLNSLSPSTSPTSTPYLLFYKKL

Activity change, negative = inhibition, inactive:
COC(=O)N(C)C[C@@H]1OCc2cnnn2CCCC(=O)N([C@H](C)CO)C[C@H]1C -16.7%
C[C@H]1CN([C@@H](C)CO)C(=O)CCCn2nncc2CO[C@@H]1CN(C)Cc1ccc(C(=O)O)cc1 -12.8%
COc1ccccc1N(CC(=O)NCCSCc1ccc(Cl)cc1)S(C)(=O)=O 5.48%
COc1ccc(S(=O)(=O)Nc2ccc3c(c2)OCO3)cc1C(=O)O 27.1%
CC[C@]12CCCN3CCc4c(n(c5ccccc45)[C@](O)(C(=O)OC)C1)[C@@H]32 -20.2%
CC(C)NC[C@@H](O)COc1cccc2ccccc12 11.3%
OCC[C@@H]1C[C@@H](O)[C@H](O)[C@]2(CCCO2)O1 -24.7%
C[C@@H]1CN([C@@H](C)CO)C(=O)CCCn2nncc2CO[C@@H]1CN(C)S(=O)(=O)c1ccccc1C#N -17%
Nc1c(C(=O)NC23CC4CC(CC(C4)C2)C3)sc2nc3c(c(C(F)(F)F)c12)CCC3 32.3%
Cc1ccc(-c2nc(NC(=O)CSc3ccc4ccccc4n3)ns2)cc1 -19.1%
C[C@H]1CN([C@@H](C)CO)C(=O)CCCn2nncc2CO[C@H]1CN(C)C(=O)c1ccc(N2CCN(C)CC2)cc1 -17.9%
CC(=O)N1C(=O)C(=C2C=C(C)OC(C)=C2)c2ccccc21 153%
CC(C)(C)OC(=O)N[C@H](C(=O)OC(C)(C)C)c1ccc(Br)cc1 -24.4%
C[C@@H]1CN([C@H](C)CO)C(=O)CCCn2nncc2CO[C@@H]1CN(C)S(=O)(=O)c1ccc2c(c1)OCCCO2 -19.5%
COc1ccc(NS(=O)(=O)c2ccc3c(c2)[C@H]2C=CC[C@H]2[C@@H](c2ccc(C(=O)O)cc2)N3)cc1 -27%
CCC(=O)Oc1ccc2c(c1)O/C(=C\c1ccco1)C2=O 90.3%

Potency, active:
COc1ccc(NC(=O)N(C)C[C@H]2Oc3ccc(NC(=O)CCN4CCOCC4)cc3C(=O)N([C@@H](C)CO)C[C@H]2C)cc1 5.01 µM
COC(=O)c1ccccc1NC1=C/C(=N\S(=O)(=O)c2ccc(C(=O)O)cc2)c2ccccc2C1=O 12.6 µM
CC(=O)N1N=C(c2ccccc2)OC1c1ccc([N+](=O)[O-])s1 (stereo not drawn) 25.1 µM
O=C(NN=c1c(=O)c2ccccc2c1=O)c1ccccc1 31.6 µM
CC(=O)[C@]1(O)Cc2c(O)c3c(c(O)c2[C@@H](O[C@H]2C[C@H](N)[C@H](O)[C@H](C)O2)C1)C(=O)c1ccccc1C3=O 28.2 µM
Cc1c(N=C2C=CC(=O)c3ccccc32)c(=O)n(-c2ccccc2)n1C 31.6 µM
O=C1C=C(NCc2ccccc2)c2ccccc2C1=O 2.51 µM
